Data from the supplement of paper PMC11417369.
± gives the standard deviation of the averaged measurements. Some of the results follow.

Tested on: PfAP2-LT AP2 domain (GST-tagged)
Assay: gcPBM binding intensity (ln(normalized median fluorescence intensity)); higher = stronger DNA binding
Procedure, shortened: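 Binding intensity is defined as the maximum Masliner-normalised natural-log median intensity across replicate spots for either probe orientation. It was measured on an Agilent 4 × 180k array of primer-extended double-stranded 36-bp intergenic genomic probes and negative controls, to which GST-tagged P. falciparum DNA-binding domains made in E. coli were applied for 1 h in 1× PBS with 1% milk, 0.2 mg/ml BSA, 0.5% salmon testes DNA and 0.03% Triton X-100. Detection was by Alexa488 anti-GST antibody and scanning at 488 nm.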

Sequence | gcPBM binding intensity (ln)
ATAAAAAAAAAAACAGTAAAATTATAATTATAATTA [TGCATGCA_negctrl_site356] | 8.53 ± 0.44
TTAACAAATAAACACACACACACACCCAAAAAAAAA [CACACA_site8068] | 10.3 ± 0.2
AAAAGCACAAAAAATACACACACAAAAAATAAAAAA [CACACA_site8545] | 9.59 ± 0.4
TAATGATAAATACATACACACAAAAAATGATATATA [CACACA_site7258] | 9.12 ± 0.43
TATATCCCTTAGAATACACACCCATATGAGTGTGAA [CACACA_site8965] | 8.74 ± 0.34
ACAAAAATTAAATAAAGTACATTTTTAAAATACGTA [XGTACX_site3880] | 8.58 ± 0.58
AATGTAAAATCTTCATATACATTTAAGTCTGTATTT [TGCATGCA_negctrl_site183] | 8.77 ± 0.49
TGTATACATTCTGAATGTACGGAACACCTCATAACT [XGTACX_site7240] | 8.87 ± 0.45
TTTGTAATAAATAAGAGTACAAGTATGGTTCCACTA [XGTACX_site2579] | 8.63 ± 0.48
TATTTATTGTGACACTTATATTATTTTATGATTAAA [CACACA_negctrl_site525] | 8.55 ± 0.46
AATATATGGTTTCATGATATTAAATTCAAAATAATG [CACACA_negctrl_site318] | 8.48 ± 0.49
TTTTCATTTGTGACAGTGCAAAATGTTATATTAAAA [GTGCAC_site9647] | 8.46 ± 0.34
TATAAAATGATGATATGTACTTATGTAGTTTTTTTA [XGTACX_site8711] | 8.54 ± 0.48
AATAATACATCCTTAGTGCAGAAATAAAAATTAAGC [GTGCAC_site9955] | 8.93 ± 0.35
TAAATACTTGTATATAGTACAAGTTGTTTTTTTTAA [XGTACX_site5643] | 8.34 ± 0.45
ATATGAAAAAGAACTTGTACTAAAGTGGCATATTAT [XGTACX_site8520] | 8.94 ± 0.38
CATATATATTTTATTTGTACGTATAAAAAAACAAAA [XGTACX_site4253] | 8.59 ± 0.36
AAAAAAAAAAAAAACACACACATATAAATATAAATA [CACACA_site6972] | 9.37 ± 0.45
ATTATTTGAAACTATTGTACATTTAAAAACATTTTT [XGTACX_site4896] | 8.32 ± 0.54

Sequence | gcPBM binding intensity (ln)
TGGAACCTTTAAAATACACACCCAAATCCTTTGAAA [CACACA_site7671] | 8.69 ± 0.35
ATTGGACTATAAATAGGTACACATATATATATATAT [XGTACX_site7562] | 9.64 ± 0.37
TTATATTATGTTCAATCAAAAATTATTTTTAAAAAA [XGTACX_negctrl_site595] | 7.9 ± 0.41
AATGTACACCCACCCACACACAAACAAATATATATA [CACACA_site5521] | 10.1 ± 0.4
GAAAAAAGAAAAAAAAGTACACACATGTATATTAAT [XGTACX_site5265] | 9.21 ± 0.39
AATGTGTTTTTTTTTTTTTTTTTTTTCAATCTCTAT [CACACA_negctrl_site794] | 8.62 ± 0.53
TTTTTGTTTGAACACTGTACGTATAAATATAAAAGT [XGTACX_site6476] | 8.61 ± 0.45
TTTCAAATTTAATACACACACAAGTATATATTTATC [CACACA_site3947] | 9 ± 0.35
TTGTGTTATCACACGAAGGGGATAAGACATAAATGT [TGCATGCA_negctrl_site368] | 8.79 ± 0.39
TATATATAAAAACACACACACACACCCTATAATTAT [CACACA_site4063] | 10.18 ± 0.042
TATATACCTATATACACACACATATATAAATAAATA [CACACA_site7341] | 9.34 ± 0.34
TATTTCTGATTACATACACACATATACAGATATGAC [CACACA_site7490] | 9.07 ± 0.23
AAAAAAAAAAAAAGTACACACATACCTATAAATATA [CACACA_site6937] | 9.12 ± 0.46
TTTACCTCTTCAATGGTGCAATAACTCAAAAATTTG | 8.37 ± 0.39
TTTTTATTTTATTAGTGTACTTTATATTTAACAATA [XGTACX_site1175] | 8.57 ± 0.47
ATAAATAAAATAAAAGCACACAAAATGTAAATAATT [CACACA_site8895] | 9.12 ± 0.42
TATATATTTATAAATGAACACACACCCAATTTGAAT [CACACA_site9113] | 9.38 ± 0.3
TTTATATACATTTTAAATTTTAATGTAACCCATGGG [TGCATGCA_negctrl_site115] | 8.31 ± 0.53
TTTATTTTTATAAGAGCATGCACTGTTTAAAATGGT [TGCATGCA_site628] | 8.51 ± 0.4

Sequence | gcPBM binding intensity (ln)
TTATATATAATATATACACACACATGTATATATAAA [CACACA_site8603] | 9 ± 0.28
TTTGTATTGTGCAGATGTACATTATAATATTGGATT [XGTACX_site5033] | 8.71 ± 0.45
ATTACATACGAGCACACGTAAAAGTATAATATAAAA [GTGCAC_negctrl_site446] | 9.03 ± 0.45
TATGTTCCATTTTTTGGTACACATACAATAACTGCT [XGTACX_site2256] | 8.78 ± 0.38
AACAAATACAAAGAATAGTCATCTGAATGGTGTTAT [GTGCAC_negctrl_site685] | 9.18 ± 0.49
GTTATATGTTATATATATATATATATATATATATAT [TGCATGCA_negctrl_site428] | 9.51 ± 0.27
AATATATACATTTATATACACACCTATATATATATA [CACACA_site1972] | 9.11 ± 0.18
AAATTAATAAGTCACACACACATATATAATATATAT [CACACA_site799] | 9.56 ± 0.27
AGCATCATTTTACACACATGCAAATGTAAAATAGGA [TGCATGCA_site460] | 9.16 ± 0.29
CATATACATATATGTAGTACGTGTTCTTCTATATGA [XGTACX_site8344] | 8.84 ± 0.44
ATTAATATGAAACGATTATAAGAAAGAAAAGAAATG [GTGCAC_negctrl_site701] | 8.68 ± 0.52
TACATATACAGACACACACACACACCCCCACAAAAA [CACACA_site495] | 10.45 ± 0.099
AAATTGAATTAGTTAACACACAACTTTTATTTCATA [CACACA_site2840] | 8.74 ± 0.4
TATATATATTTATGTACACACATCAATCATATTAAC [CACACA_site5127] | 9 ± 0.37
ATAAAGATTAATTCAAGTACACATCAAATACTACAA [XGTACX_site8794] | 8.79 ± 0.38
ATACTTTATTCGTTAGCACACAATTCAAGTTGATTC [CACACA_site1123] | 9.16 ± 0.4
TATTCCCTTCTTCCTTCTGTTTTTGATATTAAAGGG [GTGCAC_negctrl_site270] | 8.71 ± 0.42
AAGATACCCCAAAATTGTACATATTAAAATAATAAA [XGTACX_site3603] | 8.95 ± 0.38
